Laboratory results: PubChem BioAssay AID1460 (National Center for Advancing Translational Sciences (NCATS), 2008)
Values joined by “and” are separate entries in the source; they are usually repeats but may differ in a detail not shown here. Identical values can stand only once. The campaign covered roughly 270,000 compounds. About 5,800 (2.1%) were called active. This list was built around the results that the source calls inconclusive (neither active nor inactive); the mix of calls is not that of the screen. Calls come from the whole dose curve; as a rule, active = well fitted inhibition curve with a large enough effect; inconclusive = small, poorly fitted or top-dose-only effect; inactive = flat fitted curve, though single readings scatter. Where the call is inconclusive, the potency comes from a doubtful curve fit.

target: Microtubule-associated protein tau (Homo sapiens) (UniProt P10636); experiment: qHTS for Inhibitors of Tau Fibril Formation, Thioflavin T Binding; details: recombinant tau K18 P301L (four-repeat tau fragment), heparin-induced fibrillization, ThT fluorescence; series mostly up to 57.4 µM; activity, negative = inhibition: at the top concentration; note: nearly all actives have a fitted effect of over 55% in size
Outline: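 Recombinant human tau K18 fragment […] carrying P301L, 15 uM unlabeled plus 0.24 uM Alexa 594-labeled, was fibrillized with 20 uM heparin in 100 mM sodium acetate pH 7 for 6 hr at 37 C; 30 uM ThT fluorescence read after 1 hr.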
% is set by controls: 0 for no effect and ±100 for the full control effect; potency is the fitted concentration of half-maximal effect; tags give direction and shape of the fitted curve.

Chain of UniProt P10636 (P10636 whole entry, looked up, the tested form may be a part): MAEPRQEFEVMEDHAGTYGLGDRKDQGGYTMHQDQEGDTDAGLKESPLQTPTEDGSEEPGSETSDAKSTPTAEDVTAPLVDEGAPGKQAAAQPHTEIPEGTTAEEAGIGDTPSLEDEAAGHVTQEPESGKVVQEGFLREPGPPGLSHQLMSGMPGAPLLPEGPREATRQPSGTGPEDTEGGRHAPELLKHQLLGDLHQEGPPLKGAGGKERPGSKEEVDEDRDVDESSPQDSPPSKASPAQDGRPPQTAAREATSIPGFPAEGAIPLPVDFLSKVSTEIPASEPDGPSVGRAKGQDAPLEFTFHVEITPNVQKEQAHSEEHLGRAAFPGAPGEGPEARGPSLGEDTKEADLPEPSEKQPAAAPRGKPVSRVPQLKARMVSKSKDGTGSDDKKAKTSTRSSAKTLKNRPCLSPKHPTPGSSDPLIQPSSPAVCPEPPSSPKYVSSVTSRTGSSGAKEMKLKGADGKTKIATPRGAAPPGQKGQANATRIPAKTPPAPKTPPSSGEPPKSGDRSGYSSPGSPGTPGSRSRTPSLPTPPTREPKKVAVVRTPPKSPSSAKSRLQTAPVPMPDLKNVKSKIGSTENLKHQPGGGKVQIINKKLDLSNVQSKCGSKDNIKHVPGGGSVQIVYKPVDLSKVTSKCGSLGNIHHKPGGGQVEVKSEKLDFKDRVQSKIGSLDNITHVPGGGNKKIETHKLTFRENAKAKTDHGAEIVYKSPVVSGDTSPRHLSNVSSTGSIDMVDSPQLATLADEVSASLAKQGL

Question: How did the “activity, negative = inhibition” value turn out when `O=[N+]([O-])c1cn(Cc2ccc(Cl)cc2)cn1` was run?
Answer: inactive: -2.43%

Question: For `CCOc1ccc(N2CC(c3nc4ccccc4n3CCOc3ccccc3)CC2=O)cc1` (stereo not given), which Potency is on record?
Answer: inconclusive: 8.91 µM [inhibitor, partial curve]

Question: Which Potency does the source give for `N/C(=N\OC(=O)CCC1CCCCC1)c1ccc([N+](=O)[O-])cc1` here?
Answer: inconclusive: 14.1 µM [inhibitor, partial curve]

Question: For `CCOc1ccc(C(=O)c2c(N)c(-c3nc(-c4ccc(OCC)cc4)cs3)c3ccccn23)cc1`, which Potency is on record?
Answer: inconclusive: 2.51 µM [inhibitor, full curve]

Question: How did the Potency turn out when `Cc1ccc(C(=O)NCC(c2cccnc2)N2CCc3ccccc3C2)cc1C` (stereo not given) was run?
Answer: inconclusive: 1.26 µM [inhibitor, full curve]

Question: How did the Potency turn out when `CC1(OC(=O)CCc2ccccc2)C(=O)C=C2C=C(c3ccc(C#N)cc3)N(C3CC3)C=C2C1=O` (stereo not given) was run?
Answer: inconclusive: 17.8 µM [inhibitor, partial curve] and inconclusive: 8.91 µM [inhibitor, single point]

Question: Which Potency does the source give for `Cc1ccc2occ(/C=C/C(=O)c3ccccc3O)c(=O)c2c1` here?
Answer: inconclusive: 15.8 µM [inhibitor, partial curve]

Question: Which “activity, negative = inhibition” value does the source give for `O=C(Nc1cccc(Cl)c1N1CCCCC1)c1ccc2c(c1)OCCO2` here?
Answer: inactive: -17.2%

Question: For `COc1ccc(CC(=O)N/N=C/c2c(C)n(C)c3ccccc23)cc1OC`, which Potency is on record?
Answer: inconclusive: 35.5 µM [inhibitor, single point]

Question: `COc1ccc2nc(NC(=O)c3cc(=O)c4cc(C)c(C)cc4o3)sc2c1` was tested. Which Potency did it give?
Answer: inconclusive: 5.01 µM [inhibitor, partial curve]

Question: `Cc1nc(-c2ccc(F)cc2)sc1CCNC(=O)c1ccc(C(C)(C)C)cc1` was tested. Which Potency did it give?
Answer: inconclusive: 1.78 µM [inhibitor, full curve]

Question: How did the “activity, negative = inhibition” value turn out when `O=C(C1CCN(c2ncnc3c2sc2cccc(F)c23)CC1)N1CCOCC1` was run?
Answer: inactive: -18.2%

Question: For `Cc1sc2nc(SCC(=O)NCc3ccco3)n(C)c(=O)c2c1C`, which “activity, negative = inhibition” value is on record?
Answer: inactive: -5.37%

Question: With `COc1ccc(S(=O)(=O)NNC(=O)C(=O)NNc2ccccn2)cc1` as the molecule, how does the Potency read?
Answer: inconclusive: 39.8 µM [inhibitor, single point]

Question: Which Potency does the source give for `COc1ccc(CCN(/C=C2\Sc3ccccc3C2=O)C(C)=O)cc1OC` here?
Answer: inconclusive: 11.2 µM [inhibitor, partial curve]

Question: `CN1CCC/C1=C1/C(=O)N(c2ccccc2)N=C1NC(=O)Nc1cccc(Cl)c1` was tested. Which Potency did it give?
Answer: active: 8.91 µM

Question: How did the Potency turn out when `COc1cc(C2C(C#N)=C(N)Oc3c2c(-c2ccccc2)nn3-c2ccccc2)cc(OC)c1OC` (stereo not given) was run?
Answer: inconclusive: 15.8 µM [inhibitor, partial curve]

Question: `CCOc1ccc(NC(=O)CCSc2nc(-c3ccc4c(c3)OCO4)cc(C(F)(F)F)n2)cc1` was tested. Which “activity, negative = inhibition” value did it give?
Answer: inactive: -14.2%

Question: With `COc1cc2ccccc2cc1C(=O)Nc1ccc2oc(-c3cccc(C)c3)nc2c1` as the molecule, how does the Potency read?
Answer: inconclusive: 3.16 µM [inhibitor, partial curve]

Question: With `CCCCn1c(SCC(=O)N2CCN(c3ccccc3)CC2)nc2ccsc2c1=O` as the molecule, how does the “activity, negative = inhibition” value read?
Answer: inactive: -2.08%

Question: With `Cc1ccc(NC(=O)c2ccc([N+](=O)[O-])o2)cc1S(=O)(=O)N1CCOCC1` as the molecule, how does the “activity, negative = inhibition” value read?
Answer: inactive: -2%

Question: Which Potency does the source give for `CC1(C)OC(c2ccccc2)=C/C(=C\C=N\NC(=O)c2ccncc2)O1` here?
Answer: active: 11.2 µM

Question: `Cn1cccc1/C=N/NC(=O)c1sc2cc(Cl)ccc2c1Cl` was tested. Which Potency did it give?
Answer: inconclusive: 1 µM [inhibitor, full curve]

Question: How did the “activity, negative = inhibition” value turn out when `N#Cc1ccccc1OCC(=O)N1CCN(c2ccccc2F)CC1` was run?
Answer: inactive: -16.7%

Question: Which “activity, negative = inhibition” value does the source give for `O=C(CNC(=O)c1cccs1)NCC(=O)OCc1c(Cl)cccc1Cl` here?
Answer: inactive: -4.58%

Question: For `CCOC(=O)c1c(CC(C)C)csc1NC(=O)COC(=O)c1cc(OC)c(OC)cc1[N+](=O)[O-]`, which “activity, negative = inhibition” value is on record?
Answer: inactive: -1.14%

Question: Which “activity, negative = inhibition” value does the source give for `Cc1ccc2c(c1)N(C(=O)N1CCC(C(=O)NCc3ccccc3F)CC1)CC(C)O2` (stereo not given) here?
Answer: inactive: -1.54%

Question: How did the Potency turn out when `Cc1cccc(NC(=O)c2sc(-n3nc(C)c(CCC(C)C)c3C)nc2C)c1` was run?
Answer: inconclusive: 10 µM [inhibitor, partial curve]

Question: How did the Potency turn out when `Nc1c(C(=O)c2ccccc2)sc(Nc2ccc(Cl)c(Cl)c2)c1C(=O)Nc1ccccc1` was run?
Answer: active: 20 µM

Question: How did the Potency turn out when `CC[C@@H]1C(c2cccc(Cl)c2)=NN(c2ccc(Br)cc2)[C@H]1C(=O)N1CCOC1=O` was run?
Answer: inconclusive: 39.8 µM [inhibitor, single point]

Question: Which Potency does the source give for `COC1=C(OC)C(=O)c2ccccc2C1=O` here?
Answer: active: 12.6 µM

Question: With `Cc1c(CN2CCC(CO)(Cc3cccc(C(F)(F)F)c3)CC2)c2ccccc2n1C` as the molecule, how does the Potency read?
Answer: inconclusive: 17.8 µM [inhibitor, single point]

Question: For `CN1COc2ccc3ccccc3c2C1`, which Potency is on record?
Answer: inconclusive: 10 µM [inhibitor, partial curve]

Question: `O=Nc1ccc(NOC(=O)c2ccccc2Br)cc1` was tested. Which Potency did it give?
Answer: inconclusive: 14.1 µM [inhibitor, partial curve]

Question: With `COc1ccc(C(=O)Nc2nc3c(s2)Cc2cc(OC)ccc2-3)cc1` as the molecule, how does the Potency read?
Answer: active: 3.98 µM and active: 2 µM

Question: With `Cc1ccc(C(=O)OC2CCN(c3ccc([N+](=O)[O-])cc3)CC2)cc1` as the molecule, how does the Potency read?
Answer: inconclusive: 1 µM [inhibitor, full curve]

Question: With `O=C(Nc1nc(-c2ccccn2)cs1)c1ccc2c(c1)OCCO2` as the molecule, how does the Potency read?
Answer: inconclusive: 8.91 µM [inhibitor, partial curve]

Question: With `CN(C)c1ccc(C(=S)N2CCN(c3ccccc3)CC2)cc1` as the molecule, how does the Potency read?
Answer: inconclusive: 35.5 µM [inhibitor, single point]

Question: For `Cc1ccc(Nc2nc(CSc3n[nH]c(N)n3)cs2)cc1`, which Potency is on record?
Answer: inconclusive: 17.8 µM [inhibitor, partial curve, poor fit]

Question: `CCN1C(=O)c2ccccc2Sc2ccc(NC(=O)c3ccc(C#N)cc3)cc21` was tested. Which Potency did it give?
Answer: inconclusive: 22.4 µM [activator, single point]

Question: For `Oc1[nH]c2ccccc2c1N=Nc1nc2ccccc2s1`, which Potency is on record?
Answer: active: 2 µM

Question: For `Clc1ccc(-c2nnc(-c3ccco3)nc2N2CCCCC2)cc1`, which Potency is on record?
Answer: inconclusive: 44.7 µM [inhibitor, single point]

Question: With `Cc1ccc(CN2CCN(CC(=O)O)C2=O)cc1` as the molecule, how does the “activity, negative = inhibition” value read?
Answer: inactive: 0.554%

Question: With `NC(=O)CC(NC(=O)Cc1cccc2ccccc12)c1ccc(N2CCc3ccccc3C2)c([N+](=O)[O-])c1` (stereo not given) as the molecule, how does the Potency read?
Answer: active: 11.2 µM

Question: With `Cc1nn(-c2ccccc2)c(C)c1/C=N/n1c(-c2ccc(C(C)(C)C)cc2)n[nH]c1=S` as the molecule, how does the Potency read?
Answer: inconclusive: 28.2 µM [inhibitor, single point]
